# Data reported in PubChem BioAssay AID1476 (National Center for Advancing Translational Sciences (NCATS), 2009).
# Hit rate of the full screen: of about 200,000 compounds, about 4,500 (2.2%) were called active. Inconclusive results, whose numbers are uncertain, are shown with a selection of clear calls. Calls come from the whole dose curve; as a rule, active = well fitted inhibition curve with a large enough effect; inconclusive = small, poorly fitted or top-dose-only effect, or effect the other way; inactive = flat fitted curve, though single readings scatter. Potencies beside an inconclusive call are fits to weak or partial responses and may not hold up.
# Biological target: Cruzipain (Trypanosoma cruzi) (UniProt P25779)
# Assay: qHTS Assay for Promiscuous and Specific Inhibitors of Cruzain (without detergent); note: nearly all actives have a fitted effect of over 40% in size;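 for max response, negative = inhibition: plate controls were enzyme without inhibitor for no effect and buffer without enzyme for full effect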
# Details: purified cruzain, Z-FR-AMC fluorescence, no detergent
# Procedure, shortened: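 Purified cruzain at 1.5 nM, pre-incubated 15 min with compound at room temperature in 100 mM sodium acetate pH 5.5, 5 mM DTT, 0.00005% Triton X-100. Reaction started with 2 uM Z-FR-AMC; AMC fluorescence increase over 60 s gives rate.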
# Potency is the fitted concentration of half-maximal effect; tags give direction and shape of the fitted curve.
# Chain of UniProt P25779 (P25779 whole entry, looked up): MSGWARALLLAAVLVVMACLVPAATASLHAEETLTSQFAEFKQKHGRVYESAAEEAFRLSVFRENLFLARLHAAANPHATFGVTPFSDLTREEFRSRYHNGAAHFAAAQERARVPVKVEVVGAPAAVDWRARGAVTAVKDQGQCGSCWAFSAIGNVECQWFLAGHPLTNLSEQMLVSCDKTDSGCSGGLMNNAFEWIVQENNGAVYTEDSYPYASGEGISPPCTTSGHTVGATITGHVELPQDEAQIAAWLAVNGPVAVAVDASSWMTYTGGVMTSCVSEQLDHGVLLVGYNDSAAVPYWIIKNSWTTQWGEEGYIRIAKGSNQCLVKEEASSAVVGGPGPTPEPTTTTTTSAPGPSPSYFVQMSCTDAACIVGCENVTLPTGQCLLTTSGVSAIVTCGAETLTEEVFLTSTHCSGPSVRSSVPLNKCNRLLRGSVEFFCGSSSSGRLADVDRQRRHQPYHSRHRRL
SMILES,Potency,"max response, negative = inhibition"
Clc1cncc(Cl)c1NNc1c2ccccc2nc2ccccc12,"inconclusive: 39.8 µM [inhibitor, single point]",
CCOc1ccc(C(=O)Nc2cccc(-c3nc4ccccc4[nH]3)c2C)cc1[N+](=O)[O-],"inconclusive: 39.8 µM [inhibitor, single point]",
O=S(=O)(Nc1ccc2c(c1)nc1n2CCN(Cc2ccccc2)C1)c1ccc(F)cc1,"inconclusive: 39.8 µM [inhibitor, single point]",
O=C(COC(=O)c1ccccc1Cl)Nc1nccs1,"inconclusive: 39.8 µM [inhibitor, single point]",
O=C(C1CCN(C2CC(=O)N(c3cccc(Cl)c3)C2=O)CC1)N1CCCCCC1 (stereo not given),"inconclusive: 25.1 µM [activator, single point]",
O=[N+]([O-])c1ccc(N2CCN(c3nc(-c4ccc(Cl)cc4)cs3)CC2)cc1,active: 12.6 µM,
CN(C)c1ccnc(-c2ccccc2C(F)(F)F)n1,,inactive: -3.13%
CCN(CC)S(=O)(=O)c1ccc2c(c1)N(CC(=O)Nc1ccccc1F)C(=O)C1CCCN21 (stereo not given),"inconclusive: 39.8 µM [inhibitor, single point]",
O=C1CS(=O)(=O)C2(C(=O)N(Cc3ccccc3Cl)c3ccccc32)N1c1ccc(F)cc1 (stereo not given),active: 2.51 µM,
COc1ccc(Cn2c(C(=O)O)c(CNCCc3ccco3)c3ccc(OC)cc32)cc1,"inconclusive: 39.8 µM [activator, single point]",
CCN(CC)C(=O)c1ccc2nc(-c3ccccc3)c(-c3ccccc3)nc2c1,"inconclusive: 25.1 µM [activator, partial curve]",
COc1ccc2[nH]c(C)c(CCN(Cc3cccs3)C(=S)Nc3ccccc3)c2c1,"inconclusive: 39.8 µM [inhibitor, single point]",
Cc1sc2nc(SCc3nc4ccccc4[nH]3)n(Cc3ccco3)c(=O)c2c1C,active: 31.6 µM,
Cc1ccccc1CNC(=O)c1cnc2sc(N3CCC(C)CC3)nn2c1=O,,inactive: -8.46%
CCCC1(C(=O)OC)C=C2C(=C(C(C)C)C(=O)C2C)CN1 (stereo not given),,inactive: -6.28%
O=C(N/N=C/c1cccc([N+](=O)[O-])c1)c1cc(-c2ccccc2)nc2ccccc12,"inconclusive: 25.1 µM [inhibitor, single point]",
COc1cc2ccccc2cc1C(=O)Nc1cccc(-c2nc3cc(C)c(C)cc3o2)c1,,inactive: -2.57%
Cc1nc2nc(-c3ccccc3)cc(=O)n2[nH]1,,inactive: -3.31%
CCCCC/C=C\C/C=C\C/C=C\CCCCCCC(=O)NCCCC(=O)O,,inactive: -3.1%
CCCCC(=O)O[C@@]1(C(=O)CO)C(C)CC2C3CCC4=CC(=O)C=C[C@@]4(C)[C@]3(F)C(O)C[C@]21C (stereo not given in full),"inconclusive: 39.8 µM [activator, single point]",
O=C(CNC(=O)c1ccco1)OCC(=O)c1ccccc1,,inactive: -5.08%
CCc1ccc(NC(=O)c2ccc(-c3ccccc3)s2)cc1,"inconclusive: 0.0251 µM [inhibitor, full curve, poor fit]",

SMILES,Potency,"max response, negative = inhibition"
CCOCCCNC(=O)C1CCN(S(=O)(=O)N(CC(C)C)CC(C)C)CC1,"inconclusive: 25.1 µM [activator, partial curve]",
Cc1c(C(=O)Nc2ccc(Cl)cn2)oc2ccccc12,"inconclusive: 39.8 µM [inhibitor, single point]",
O=C(CSC(=S)N1CCCCC1)Nc1nc(-c2ccccc2)c(-c2ccccc2)o1,"inconclusive: 39.8 µM [inhibitor, single point]",
COc1ccc(OC)c(S(=O)(=O)Nc2ccc3oc4c(c3c2)C(=O)CCC4)c1,"inconclusive: 39.8 µM [activator, single point]",
O=C(/C=C/c1ccc(Cl)cc1)Nn1c(-c2cccs2)nc2ccccc2c1=O,"inconclusive: 39.8 µM [inhibitor, single point]",
Cc1cccc(Cn2c(=O)n3nc(-c4ccccc4)nc3c3ccccc32)c1,,inactive: 1.79%
CCNc1ncc2nc(-c3cccc(C#N)c3)c(=O)n(Cc3cccc(OC)c3)c2n1,,inactive: -2.64%
COc1ccc(NC(=O)c2sc3nc4c(cc3c2N)CN(Cc2ccccc2)CC4)c(OC)c1,,inactive: 1.68%
COC(=O)CCC(=O)OC1(C)C(=O)C=C2C=C(CCCNC(=O)OC(C)(C)C)OC=C2C1=O (stereo not given),,inactive: 7.09%
CCOc1ccccc1NC(=O)c1cccc(S(=O)(=O)N(Cc2ccccc2)c2ccccc2OC)c1,"inconclusive: 39.8 µM [inhibitor, single point]",
Cc1cc(O)c(C(c2cccc(F)c2)N2CCN(c3ccccc3)CC2)c(=O)n1Cc1ccco1 (stereo not given),"inconclusive: 31.6 µM [inhibitor, single point]",
O=c1[nH]c(=O)n(-c2ccc(F)cc2)c(O)c1C=Nc1ccccc1N1CCCC1,"inconclusive: 39.8 µM [inhibitor, single point]",
COc1ccc2[nH]c(=O)c(C(c3nnnn3CC3CCCO3)N3CCc4ccccc4C3)cc2c1 (stereo not given),"inconclusive: 39.8 µM [activator, single point]",
CC(=O)Nc1ccc(N2N=C(C)C(N=Nc3ccccc3)C2=O)cc1 (stereo not given),"inconclusive: 15.8 µM [activator, partial curve]",
CN1/C(=C\C(=O)COC(=O)CNC(=O)c2ccccc2F)C(C)(C)c2ccccc21,active: 20 µM,
CN(c1ccccc1)S(=O)(=O)c1ccc(NC(=O)c2nc(S(C)(=O)=O)ncc2Cl)cc1,"inconclusive: 25.1 µM [inhibitor, single point]",
CC(C)(C)OC(=O)C(Cc1ccc(OC(C)(C)C)cc1)NC(=O)CNC(=O)CNC(=O)OCc1ccccc1 (stereo not given),"inconclusive: 6.31 µM [activator, full curve]",
COC(=O)c1ccc(COC(=O)C(CCS(C)(=O)=O)N2C(=O)c3ccccc3C2=O)cc1 (stereo not given),"inconclusive: 39.8 µM [activator, single point]",
CCOC(=O)c1cc(S(=O)(=O)Nc2cc(OC)ccc2OC)[nH]n1,,inactive: 14.2%
CCOc1ncccc1C(=O)OCC(=O)N1CC(=O)Nc2ccccc21,"inconclusive: 0.794 µM [inhibitor, full curve]",
CSc1ccc(CCNC(=O)NCc2noc3ccccc23)cc1,,inactive: -5.13%
CCCC(=O)Nc1cccc2c1CCCC2,,inactive: 5.5%

SMILES,Potency,"max response, negative = inhibition"
COc1cc2c(cc1OC)C(C(C)C)=NC(C)(C)C2,active: 20 µM,
CCOC(=O)CC(NC(=O)CCc1c(C)nc2c(-c3ccccc3)c(C)nn2c1C)c1ccc(OC(C)C)cc1 (stereo not given),"inconclusive: 20 µM [activator, partial curve]",
Cc1ccccc1NC(=O)/C(=C/c1ccccc1)c1ccccc1,,inactive: -5.17%
Cc1cccc(NC(=O)Cn2cc(C(=O)C3CCCCC3)c3ccccc32)c1,,inactive: -9.51%
O=C(Cc1ccc(Cl)cc1)N/N=C/c1c(Cl)cccc1Cl,"inconclusive: 39.8 µM [inhibitor, single point]",
CCCCOc1cccc(C2C(C(=O)c3cccs3)=C(O)C(=O)N2Cc2cccnc2)c1 (stereo not given),"inconclusive: 31.6 µM [activator, single point]",
CCCCCCCC(=O)NNC(=O)Cc1ccccc1,"inconclusive: 25.1 µM [inhibitor, single point]",
Cc1ccc(-c2nc(CS(=O)CC(=O)NCc3ccc(Cl)cc3)c(C)o2)cc1 (stereo not given),"inconclusive: 39.8 µM [activator, single point]",
Cc1cc(S(=O)(=O)N2CCN(Cc3noc(CCC(=O)N4CCCCC4)n3)CC2)ccc1F,"inconclusive: 39.8 µM [activator, single point]",
COc1ccc(C2NC(=O)N(C)C3=C2C(=O)N(c2ccc(Br)cc2)C3)cc1 (stereo not given),"inconclusive: 12.6 µM [activator, partial curve, poor fit]",
COc1cccc2sc(N(Cc3cccnc3)C(=O)c3ccc4c(c3)OCCO4)nc12,"inconclusive: 20 µM [activator, single point]",
CCc1ccc(-n2cc(-c3ccc([N+](=O)[O-])cc3)[nH]c2=S)cc1,active: 25.1 µM,
CC(=O)OC1C=C[C@]2(C)C(CC(OC(C)=O)[C@@]3(C)C4=CC(=O)OC(c5ccoc5)[C@]4(C)CCC23)C1(C)C (stereo not given in full),,inactive: 11.9%
CCOCCn1ccc2c(OCC(=O)Nc3ccc(C(N)=O)cc3)cccc2c1=O,,inactive: -3.18%
CC(C)c1ccc(CN(C(=O)c2cc3ccccc3oc2=O)C2CCS(=O)(=O)C2)cc1 (stereo not given),"inconclusive: 39.8 µM [activator, single point]",
CCCn1c(=O)c(C(=O)NCc2cccnc2)c(O)c2ccccc21,"inconclusive: 39.8 µM [activator, single point]",
CCOC(=O)c1oc2ccc(S(=O)(=O)n3nc(-c4ccc(C)cc4)cc3N)cc2c1C,"inconclusive: 31.6 µM [inhibitor, single point]",
CCOC(=O)c1c(C)n(CC(COC(C)=O)OC(C)=O)c2ccc(OC(C)=O)cc12 (stereo not given),"inconclusive: 39.8 µM [activator, single point]",
Cc1ccc(C(C(=O)NCc2ccco2)N(C(=O)CNC(=O)c2cccs2)c2ccc(C)cc2C)cc1 (stereo not given),"inconclusive: 31.6 µM [inhibitor, single point]",
CCOC(=O)/C(C#N)=C/c1c(Oc2cc(C)cc(C)c2)nc2ccccn2c1=O,"inconclusive: 20 µM [activator, partial curve]",
Cc1ccccc1S(=O)(=O)Cc1ccc(C(=O)N2CCN(c3cccc(Cl)c3)CC2)o1,"inconclusive: 39.8 µM [activator, single point]",
